According to publication PMC7045587:

Assay: Michaelis-Menten kinetics, 60 °C, pH 4
Details: glycan gained, control: wild type

B1: CTendo45: G63T (protein)
parent chain: MHLSQLALPLLLAAGAHAQGAQGTGRTTRYWDCCKPSCAWPGKSNALQPVQTCNAQDQPLNDGGNTRSGCDSGGSAFMCSNQSPWALNETLSYGWAAVRIAGQSEFNWCCACYELTFTSGPVAGKKMIVQATNTGGDLGSNHFDIAIPGGGVGIFNACTQQYGAPPNGWGERYGGIRSRSECDSFPEALKAGCYWRFDWFLGADNPDVSFKQVACPAAITAKSKCVRQRDVIDQTPTGPEIVPTWTP
enzymatic_activity, kcat_Km (CMC-Na substrate): decreases, 35.68 ± 0.97 vs 62.06 ± 1.25 | enzymatic_activity, kcat_Km (β-d-glucan substrate): no change, 140.39 ± 1.64 vs 138.46 ± 2.07

Some values that stand alone complete this part of the results.
